# The supplement of paper PMC3334620
# The full ranking holds about 33,000 sequences; the median of “E-score (-0.5 to 0.5)” is about -0.043, and the highest 2% start at about 0.37. This is one part of the list.
# Biological target: T1, Upc2 (UniProt Q12151)
# T1 sequence: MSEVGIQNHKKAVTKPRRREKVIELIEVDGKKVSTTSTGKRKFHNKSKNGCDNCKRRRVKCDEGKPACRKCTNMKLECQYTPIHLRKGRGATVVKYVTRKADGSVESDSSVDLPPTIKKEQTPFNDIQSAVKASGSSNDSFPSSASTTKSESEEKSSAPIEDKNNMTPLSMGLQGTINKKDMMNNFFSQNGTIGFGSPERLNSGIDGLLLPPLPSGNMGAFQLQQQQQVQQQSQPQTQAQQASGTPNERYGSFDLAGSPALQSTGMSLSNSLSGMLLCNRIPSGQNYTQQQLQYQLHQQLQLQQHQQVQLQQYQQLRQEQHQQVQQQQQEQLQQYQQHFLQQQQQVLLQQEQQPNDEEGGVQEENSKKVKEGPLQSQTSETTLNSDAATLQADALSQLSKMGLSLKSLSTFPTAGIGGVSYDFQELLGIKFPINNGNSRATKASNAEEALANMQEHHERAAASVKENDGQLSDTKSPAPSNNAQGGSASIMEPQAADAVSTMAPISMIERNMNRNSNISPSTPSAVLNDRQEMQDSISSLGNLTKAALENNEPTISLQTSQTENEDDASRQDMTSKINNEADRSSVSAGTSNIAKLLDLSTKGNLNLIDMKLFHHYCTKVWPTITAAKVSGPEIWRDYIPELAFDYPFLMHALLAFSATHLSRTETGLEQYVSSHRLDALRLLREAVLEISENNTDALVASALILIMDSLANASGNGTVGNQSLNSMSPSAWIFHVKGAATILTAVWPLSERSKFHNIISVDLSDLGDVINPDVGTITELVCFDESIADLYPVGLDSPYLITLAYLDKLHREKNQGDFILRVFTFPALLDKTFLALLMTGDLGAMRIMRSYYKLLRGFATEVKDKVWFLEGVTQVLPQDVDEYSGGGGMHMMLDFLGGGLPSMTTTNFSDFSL
# Assay: PBM E-score (8-mer binding enrichment) (E-score (-0.5 to 0.5)); higher = stronger / more preferred TF binding; most listed sequences are background and not binding sites
# Conditions: protein concentration: 200 nM; construct: GST-full length
# How it was run: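 The E-score, a modified Wilcoxon-Mann-Whitney statistic, was computed by the Universal PBM Analysis Suite for every ungapped eight-base word pooled with its reverse complement. Scans behind it were normalised with masliner after bound GST-tagged yeast transcription factors were detected with fluorescent anti-GST. The proteins, at about 100-200 nM, had been applied to universal all-10-mer Agilent arrays made double-stranded by primer extension.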
row,Sequence,PBM E-score
1,CAGGGGGC,-0.183
2,AGCGGTAG,0.0244
3,GCCCGCGA,-0.0163
4,ATAGAAGC,-0.051
5,CGTAGAAC,0.219
6,AACTCACC,-0.206
7,ACAATCTC,-0.0376
8,GAAAAATC,0.107
9,GACGTTTA,0.366
10,CTGTCTAC,-0.0534
11,ACTGGCCG,-0.0772
12,AGGATGTA,0.117
13,GCAACGGA,0.129
14,GTTTGAGA,0.0947
15,CAGTACCG,-0.103
16,TAAGCAAA,0.181
17,GGGACCGA,0.146
18,GGTATTAC,0.0133
19,CGTACTGC,0.245
20,AATACCCA,-0.155
21,AAACAAGG,-0.188
22,GTAAGACA,0.101

row,Sequence,PBM E-score
1,TATTTAAA,0.131
2,AATTGCAC,-0.103
3,AGTTCCAA,-0.216
4,AGGGGCAA,-0.0978
5,AAGTGATG,-0.0502
6,AGTGTTGA,-0.0264
7,CATTGGGG,-0.304
8,CAGGGTTC,0.0515
9,ATCCATTC,0.136
10,AAAGCGAA,0.0877
11,AGTCTAGG,-0.159
12,CCATTTAA,-0.0213
13,ATCCTTGG,-0.199
14,AGAAAAAA,-0.0692
15,CACTCAGC,-0.223
16,GCACCGAA,0.0996
17,AATTCGAG,0.00487
18,CAGGTCGA,-0.235
19,ACGAAACC,0.267
20,ACTTCTCG,0.197
21,AACTCGTC,0.0662
22,AAGTTGAG,0.0579

row,Sequence,PBM E-score
1,GGATTCGA,-0.251
2,AAGACTGT,-0.0358
3,AGTGAGCC,-0.249
4,GATCAAAC,0.123
5,AGTTGACG,-0.114
6,GAAGCCTA,0.0141
7,TCAGCCCA,-0.155
8,CATCACTC,-0.168
9,GCTTGGCC,-0.113
10,CTAGAATC,0.0144
11,CTGTCACC,-0.127
12,CTTTAAAG,-0.114
13,CATGTCAG,-0.372
14,CCCGTACG,0.393
15,ACGACTGG,0.289
16,CCTGCCTC,0.0268
17,CCTTCAAC,-0.125
18,CGGGGCAA,-0.0771
19,ACACGAAC,0.216
20,CGTTTCAC,0.238
21,CACTAACA,-0.087
22,ATCGTCAT,0.109

row,Sequence,PBM E-score
1,CACGGACG,-0.137
2,CGCTTGCC,-0.0304
3,TTAGAGAA,-0.124
4,AGTAAACC,-0.0507
5,CGACGTCA,0.0552
6,CAATTAAA,0.0542
7,AATTTCCT,-0.129
8,AGACTATA,0.197
9,CAGGATCC,-0.0255
10,AATAGTCC,-0.249
11,GAACCCCC,-0.21
12,GGGAGGAC,-0.118
13,CGGACACA,-0.111
14,ACCGAAGT,0.147
15,ATGCCTCC,-0.214
16,CCCTCAGA,-0.114
17,ATGCAATA,-0.105
18,GCAACAAC,-0.0227
19,CGAAATAA,0.22
20,TCACTTCA,-0.239
